{"source": "PubChem BioAssay AID485364", "about": "(National Center for Advancing Translational Sciences (NCATS), 2010)", "note": "The campaign covered roughly 360,000 compounds. About 11,000 (3.1%) were called active. Inconclusive means that the source gave no clear call. Such entries were picked first, then a sample of the others. The call rests on the fitted dose curve; in most records, active means well fitted inhibition curve with a large enough effect; inconclusive means small, poorly fitted or top-dose-only effect; inactive means no such curve, though single readings can be large or run the other way. Potencies of inconclusive entries are left out as doubtful fits. On the % scale 0 is the no-effect control and ±100 the full control effect; potency means the concentration at half of the fitted maximal effect; tags describe the fitted curve by direction and shape.", "data": [{"target": "Schistosoma mansoni thioredoxin glutathione reductase (TGR) (UniProt Q962Y6)", "experiment": "qHTS Assay for the Inhibitors of Schistosoma Mansoni Peroxiredoxins; further: nearly all actives have a fitted effect of over 60% in size", "conditions": "purified TGR, DTNB reduction, TNB absorbance 405 nm; activity change, negative = inhibition: at 114 µM (top of the series) unless noted", "in_short": "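First, TGR (20 nM dispensed) and NADPH were mixed with compound. Second, a 15 min room-temperature incubation followed. Third, further NADPH and then DTNB were added to start the reaction. Finally, TNB absorbance was monitored kinetically.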", "values": [{"smiles": "Fc1cccc(NC(=S)Nc2ccc(Br)cc2)c1", "Potency": "active: 20 µM"}, {"smiles": "Cc1cc(C(=O)N2CCCC(N3CCN(c4cccc(C(F)(F)F)c4)CC3)C2)c(C)o1", "note": "(stereo not drawn)", "Potency": "inconclusive [inhibitor, full curve, poor fit]"}, {"smiles": "N#Cc1nc(Cc2cccc3ccccc23)oc1NCCN1CCCCC1", "Potency": "inconclusive [inhibitor, partial curve]"}, {"smiles": "COc1cc(CNc2ccc(N3CCCC3)cc2)ccc1OCc1ccccc1F", "Potency": "inconclusive [inhibitor, partial curve]"}, {"smiles": "CCOC(=O)C1=C(C)OC(N)=C(C#N)C1c1ccc(OC)c(C)c1OC", "note": "(stereo not drawn)", "Potency": "inconclusive [inhibitor, full curve, poor fit]"}, {"smiles": "Cc1ccc(S(=O)(=O)N2CCCCC2C)cc1[N+](=O)[O-]", "note": "(stereo not drawn)", "Potency": "inconclusive [inhibitor, full curve, poor fit]"}, {"smiles": "COC(=O)c1ccc(NC(=O)c2cccc(C)c2[N+](=O)[O-])cc1", "activity change, negative = inhibition": "inactive: -4.18%"}, {"smiles": "CSC1=NS(=O)(=O)c2c(C)nn(C)c2S1", "Potency": "inconclusive [inhibitor, single point]"}, {"smiles": "NC(=O)C1CCN(C(=O)c2cccc(NC(=O)c3nsc4ccccc34)c2)CC1", "activity change, negative = inhibition": "inactive: -3.45%"}, {"smiles": "CSc1ccccc1NC(=O)C1=CC(c2cccs2)=NS(=O)(=O)N1C", "Potency": "inconclusive [inhibitor, full curve, poor fit]"}, {"smiles": "COc1cc(NC(=O)CCc2nnc3ccc(N4CCC5(CC4)OCCO5)nn23)cc(OC)c1", "activity change, negative = inhibition": "inactive: 1.78%"}, {"smiles": "CCn1c(CNS(=O)(=O)c2ccc(Br)cc2)nnc1SC", "Potency": "active: 3.55 µM"}, {"smiles": "Cc1nc2cc(-c3ccccc3)nn2c(C)c1CCC(=O)NCc1ccco1", "Potency": "inconclusive [inhibitor, partial curve]"}, {"smiles": "COC(=O)c1ccc(C2/C(=C(\\O)c3cccc(OC)c3)C(=O)C(=O)N2CCCN(C)C)cc1", "note": "(stereo not drawn)", "Potency": "inconclusive [inhibitor, partial curve]"}, {"smiles": "COc1cccc(C(=O)c2ncc(C(F)(F)F)cc2Cl)c1", "Potency": "active: 50.1 µM"}, {"smiles": "c1coc(CNc2nc3sc4c(c3c3ncnn23)CCCC4)c1", "Potency": "inconclusive [inhibitor, single point]"}, {"smiles": "O=C1C=C(c2ccc3ccccc3c2)C[C@@H](c2ccc(Cl)cc2)C1", "Potency": "inconclusive [inhibitor, partial curve]"}, {"smiles": "CCNC(=O)NC(=O)C(C)SCc1ccccc1C", "note": "(stereo not drawn)", "activity change, negative = inhibition": "inactive: -16.4%"}, {"smiles": "Cc1ccc(Cl)cc1NC(=O)N1CCC(CN2CCCCCC2)CC1", "Potency": "inconclusive [inhibitor, partial curve]"}, {"smiles": "COc1ccc(-n2nc3c(c2NC(=O)c2ccccc2S(=O)(=O)C(F)F)CS(=O)(=O)C3)cc1", "Potency": "inconclusive [inhibitor, partial curve]"}, {"smiles": "C=CCNC(=O)c1ccc(-c2ccc([N+](=O)[O-])cc2)o1", "Potency": "active: 17.8 µM"}, {"smiles": "O=C(N/N=C/c1cccnc1)c1ccccc1Br", "Potency": "inconclusive [inhibitor, single point]"}, {"smiles": "COc1ccccc1NC(=O)C1CCN(S(=O)(=O)c2ccc3c(c2)CC(C)N3C(C)=O)CC1", "note": "(stereo not drawn)", "activity change, negative = inhibition": "inactive: 6.86%"}, {"smiles": "CC(CN1CCCC1)OC(=O)c1ccc(F)cc1", "note": "(stereo not drawn)", "activity change, negative = inhibition": "inactive: 4.46%"}, {"smiles": "COc1cccc(-c2nc(CS(=O)(=O)CC(=O)NC3CCCCCC3)c(C)o2)c1", "Potency": "inconclusive [inhibitor, partial curve]"}, {"smiles": "NC(=O)CCC(NS(=O)(=O)c1ccc(Cl)cc1)C(=O)NCC1CCCCC1", "note": "(stereo not drawn)", "Potency": "inconclusive [inhibitor, partial curve]"}, {"smiles": "O=C(c1ccc2oc(CCc3ccccc3)nc2c1)N1CCC(O)CC1", "activity change, negative = inhibition": "inactive: -9.52%"}, {"smiles": "O=C(Oc1cc(=O)oc2c1c(=O)n1c3c(cccc23)CC1)c1ccccc1", "Potency": "active: 10 µM"}, {"smiles": "O=S(=O)(CCOc1ccccc1)N1CCOCC1", "Potency": "inconclusive [inhibitor, partial curve]"}, {"smiles": "CC(=O)c1c(C)[nH]c(C(=O)OCc2cc(=O)n3cc(Br)ccc3n2)c1C", "Potency": "inconclusive [inhibitor, single point]"}, {"smiles": "COc1cccc(CNC(=O)c2cc(S(=O)(=O)N3CCCCCC3)cn2C)c1", "activity change, negative = inhibition": "inactive: -4.79%"}, {"smiles": "COc1ccc(C=C2C(=O)N(C)C(=O)N(C)C2=O)cc1CSc1ccccn1", "Potency": "inconclusive [inhibitor, full curve, poor fit]"}, {"smiles": "CCOC(=O)N1CCc2c(sc3ncn(Cc4ccc(F)cc4)c(=O)c23)C1", "activity change, negative = inhibition": "inactive: 1.57%"}, {"smiles": "COc1ccc(-c2ccoc2)cc1[C@H]1[C@H]2C=CC[C@@H](C)[C@@H]2C(=O)N1Cc1ccccc1", "Potency": "inconclusive [inhibitor, partial curve]"}, {"smiles": "O=C(CNC(=O)c1ccccc1)NCC(=O)OCC(=O)c1ccc(F)cc1", "activity change, negative = inhibition": "inactive: 5.97%"}, {"smiles": "O=C(CCS(=O)(=O)c1ccccc1)OCc1ccc([N+](=O)[O-])cc1", "Potency": "inconclusive [inhibitor, single point]"}, {"smiles": "CCc1ccc(NC(=O)C2=CC(c3ccc(OC)c(OC)c3)=NS(=O)(=O)N2C)cc1", "activity change, negative = inhibition": "inactive: -28.2%"}, {"smiles": "COc1ccc(C(=O)Nc2ccc(S(=O)(=O)Nc3nccnc3OC)cc2)cc1OC", "activity change, negative = inhibition": "inactive: 6.37%"}, {"smiles": "Cc1ccc(S(=O)(=O)N2CCCCC2)cc1NC(=O)c1cnccn1", "activity change, negative = inhibition": "inactive: 0.772%"}, {"smiles": "O=C1C(Cl)=C(Nc2ccc3cn[nH]c3c2)C(=O)c2ccccc21", "Potency": "active: 0.316 µM"}, {"smiles": "COc1cccc(N2CCc3c(C)nc4ccc(Cl)cc4c32)c1", "activity change, negative = inhibition": "inactive: 0.803%"}, {"smiles": "CC(C)c1ccc(N2C(=O)NC(=O)/C(=C\\c3cnc(-c4ccccc4)nc3)C2=O)cc1", "Potency": "active: 11.2 µM"}, {"smiles": "COc1ccc(-c2cc(C(=O)NC(C(=O)O)C(C)C)c(C)o2)cc1OC", "note": "(stereo not drawn)", "Potency": "inconclusive [inhibitor, partial curve]"}, {"smiles": "COC(=O)c1ccccc1NC(=S)NC(=O)c1ccccc1C", "Potency": "inconclusive [inhibitor, partial curve]"}, {"smiles": "CC(C#Cc1c([C@@H](C)Oc2ccccc2)nnn1Cc1ccccc1)Oc1ccccc1", "note": "(stereo partly drawn)", "Potency": "active: 7.94 µM"}, {"smiles": "Cc1cc(NS(=O)(=O)c2ccccc2)c(C)c(Cl)c1O", "Potency": "inconclusive [inhibitor, full curve, poor fit]"}, {"smiles": "CCOC(=O)c1ccc(N2C(=O)CC(N3CCC(C(=O)OCC)CC3)C2=O)cc1", "note": "(stereo not drawn)", "Potency": "inconclusive [inhibitor, partial curve]"}, {"smiles": "Cc1ccc(NC(=S)NCc2cccs2)cc1", "Potency": "inconclusive [inhibitor, full curve, poor fit]"}, {"smiles": "COc1ccc(C(=S)NCS(=O)(=O)c2ccc(C)cc2)cc1", "Potency": "active: 2.51 µM"}, {"smiles": "Cn1cc(CCC(=O)NC2CC2)c2ccccc21", "Potency": "inconclusive [inhibitor, single point]"}, {"smiles": "Cc1cc(NC(=O)c2ccccc2)ncc1NC(=O)c1ccco1", "Potency": "active: 22.4 µM"}, {"smiles": "CCCn1c(SCC(=O)NCc2ccco2)nnc1C(C)C", "Potency": "inconclusive [inhibitor, partial curve]"}, {"smiles": "C=CCOc1cccc(CNc2ccc3[nH]c(=O)[nH]c3c2)c1", "Potency": "inconclusive [inhibitor, partial curve]"}, {"smiles": "CNC(=O)COC(=O)c1ccccc1Oc1ccccc1", "Potency": "inconclusive [inhibitor, single point]"}, {"smiles": "COc1ccc(CCN2CC(C(=O)N(C)C3CCOCC3)CCC2=O)cc1", "note": "(stereo not drawn)", "Potency": "inconclusive [inhibitor, single point]"}, {"smiles": "CCN(CC)c1ccc2c(c1)oc(=O)c1c(Cl)cc(=O)oc12", "Potency": "active: 6.31 µM"}, {"smiles": "COc1cc(NC(=S)NCCCN2CCOCC2)c(OC)cc1NC(=O)c1ccco1", "Potency": "inconclusive [inhibitor, partial curve]"}, {"smiles": "Cc1cc(NC(=S)Nc2ccc(C)c(Cl)c2)n[nH]1", "Potency": "active: 7.08 µM"}, {"smiles": "CCC(=O)N(Cc1ccc(S(N)(=O)=O)cc1)C1CC(=O)N(c2ccc(OC)cc2)C1=O", "note": "(stereo not drawn)", "Potency": "active: 28.2 µM"}, {"smiles": "O=C(O)c1[nH]c2ccc(Br)cc2c1CCN1C(=O)c2cccc([N+](=O)[O-])c2C1=O", "Potency": "inconclusive [inhibitor, partial curve, poor fit]"}, {"smiles": "Cc1cccc(N(Cc2ccccc2)C(=O)CCl)c1", "Potency": "active: 14.1 µM"}, {"smiles": "CC(C)C[C@@H](CN(C)N=O)N(C[C@H](Cc1ccccc1)N(CCc1ccccc1)N=O)N=O", "Potency": "active: 39.8 µM"}, {"smiles": "CCc1ccc(NC(=O)CSC2=Nc3ccccc3C3=NC(CCC(=O)NCc4ccccc4)C(=O)N23)cc1", "note": "(stereo not drawn)", "activity change, negative = inhibition": "inactive: 13.4%"}, {"smiles": "COc1ccccc1N1CCN(C(=O)c2ccc3c(c2)NC(=O)C(CSCc2ccccc2C)N3)CC1", "note": "(stereo not drawn)", "Potency": "inconclusive [inhibitor, full curve]"}, {"smiles": "Cc1csc(NC(=O)CCS(=O)(=O)c2ccc(Br)cc2)n1", "Potency": "active: 3.55 µM"}, {"smiles": "CCOC(=O)c1ccc(NC(=O)N2CCc3ccccc32)cc1", "activity change, negative = inhibition": "inactive: -1.73%"}, {"smiles": "CC(Sc1nnc(-c2ccco2)n1C)C(=O)N1C(C)CCCC1C", "note": "(stereo not drawn)", "Potency": "inconclusive [inhibitor, partial curve]"}, {"smiles": "O=C1Oc2ccccc2C(=O)/C1=C/c1ccccc1O", "Potency": "active: 2 µM"}, {"smiles": "Cc1cc(C)c2c(=O)n(CC(=O)NCCCN3CCN(c4ccccc4F)CC3)sc2n1", "Potency": "inconclusive [inhibitor, partial curve]"}, {"smiles": "S=C(Nc1ccc(N2CCOCC2)cc1)Nc1ccc2snnc2c1", "Potency": "active: 35.5 µM"}, {"smiles": "CCOc1ccc(C(=O)Nc2cccc(-c3nc4cccnc4o3)c2)cc1Cl", "activity change, negative = inhibition": "inactive: 0.909%"}, {"smiles": "COc1ccc(CNC(=O)c2cc3c(=O)n(Cc4ccco4)ccc3nc2C)cc1", "Potency": "inconclusive [inhibitor, partial curve]"}, {"smiles": "CCOc1ccc(NC(=O)CSc2ccc(-c3ccco3)nn2)cc1", "Potency": "inconclusive [inhibitor, partial curve]"}]}]}
